Source: paper PMC4336329 (PLoS ONE, 2015)
The whole screen tested about 310,000 compounds, of which about 14,000 (4.5%) showed an effect of 50% or more. The effect is printed as a negative number. This is one part of the list.

The molecules below were run against human ether-à-go-go-related gene (hERG) potassium channel (human, UniProt Q12809) (assay: primary screen, population patch clamp on CHO cells stably expressing hERG).
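Also: peak tail current of the secondary pulse compared with the same well before compound.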

Sequence of human ether-à-go-go-related gene (hERG) potassium channel (Q12809 whole entry, looked up): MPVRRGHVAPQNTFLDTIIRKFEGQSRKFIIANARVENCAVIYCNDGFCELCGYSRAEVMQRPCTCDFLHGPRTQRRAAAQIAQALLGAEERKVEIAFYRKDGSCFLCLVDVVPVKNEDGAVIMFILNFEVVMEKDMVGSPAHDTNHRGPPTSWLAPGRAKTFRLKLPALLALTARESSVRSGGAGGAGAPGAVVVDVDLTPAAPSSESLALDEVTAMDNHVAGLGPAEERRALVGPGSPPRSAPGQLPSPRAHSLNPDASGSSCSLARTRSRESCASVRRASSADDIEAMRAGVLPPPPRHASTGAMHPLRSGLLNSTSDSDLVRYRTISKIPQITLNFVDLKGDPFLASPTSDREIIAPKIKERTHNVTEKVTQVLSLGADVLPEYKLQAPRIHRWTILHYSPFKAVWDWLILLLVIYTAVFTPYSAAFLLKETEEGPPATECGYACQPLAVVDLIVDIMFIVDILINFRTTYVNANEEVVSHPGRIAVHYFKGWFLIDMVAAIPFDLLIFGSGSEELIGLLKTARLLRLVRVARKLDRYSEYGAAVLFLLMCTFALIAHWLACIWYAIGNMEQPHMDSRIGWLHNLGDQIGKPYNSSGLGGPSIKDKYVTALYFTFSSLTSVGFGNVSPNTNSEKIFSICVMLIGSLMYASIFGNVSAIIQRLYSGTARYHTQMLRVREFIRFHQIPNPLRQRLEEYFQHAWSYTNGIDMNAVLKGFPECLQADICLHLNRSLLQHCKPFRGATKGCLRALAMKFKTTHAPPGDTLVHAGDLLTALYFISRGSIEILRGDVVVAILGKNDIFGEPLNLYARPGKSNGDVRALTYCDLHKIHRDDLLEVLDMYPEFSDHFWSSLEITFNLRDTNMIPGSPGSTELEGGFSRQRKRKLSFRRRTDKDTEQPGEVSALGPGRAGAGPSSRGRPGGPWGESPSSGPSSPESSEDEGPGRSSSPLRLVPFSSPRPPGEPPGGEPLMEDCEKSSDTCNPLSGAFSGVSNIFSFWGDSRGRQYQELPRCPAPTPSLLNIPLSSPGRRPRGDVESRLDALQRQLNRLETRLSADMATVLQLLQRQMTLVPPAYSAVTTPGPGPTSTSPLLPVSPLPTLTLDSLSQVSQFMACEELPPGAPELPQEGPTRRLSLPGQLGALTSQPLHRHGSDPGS

| Structure (SMILES) | hERG current change (%, negative = inhibition) at 10uM |
| --- | --- |
| CCOC(=O)CC1C(=O)NCCN1C(=O)c1sc2ccccc2c1Cl (stereo not drawn) | 0.151% |
| O=C(NCCO)c1ccc2c(c1)S(=O)(=O)c1ccccc1C2=O | -16.3% |
| Cc1nc(-c2ccc(O)c(O)c2)cs1 | -14.8% |
| Cc1ccc(-c2ccc(/C=C(\C#N)C(=O)Nc3cc(C)nn3-c3ccccc3)o2)cc1 | -3.49% |
| COc1ccc(Cn2cc(C(=O)c3ccccc3)c(=O)c3cc(OC)ccc32)cc1 | -31.3% |
| Cn1cc(CNC(=O)/C=C/c2ccc(Cl)cc2)cn1 | -4.23% |
| CCN(CC(=O)NCc1cccs1)C(=O)c1cccc(S(=O)(=O)NC)c1 | -12.2% |
| COC(=O)N(C)c1ccc(C(O)(C(=O)OC)C(F)(F)F)cc1 (stereo not drawn) | 15.9% |
| Cc1cc(/C=C(/C#N)c2nc3ccccc3[nH]2)c(C)n1-c1ccccc1C(=O)O | 15.8% |
| CN(C)[C@@H]1C(=O)C(C(N)=O)=C(O)[C@@]2(O)C(=O)C3=C(O)c4c(O)cccc4[C@@](C)(O)[C@H]3[C@H](O)[C@@H]12 | -0.336% |
| Cc1c(Cl)cnc(NC(=O)COC(=O)c2ccc3c(c2)OCO3)c1Cl | 6.35% |
| COc1ccc(Br)cc1/C=N/NC(=O)CN1CCCCC1 | -4.99% |
| CCCCCn1c(=O)c(C(=O)Nc2ccccc2S(N)(=O)=O)c(O)c2ccccc21 | 16% |
| CCCN(CCC)C(=O)c1ccc2c(c1)OCO2 | 1.58% |
| N#CC1=C(N)N2C(=C(C#N)C1c1ccccc1)Sc1ccccc12 (stereo not drawn) | 14.5% |
| COc1ccc(/C=C/C(=O)c2ccc3c(c2)OCO3)c(OC)c1 | 2.4% |
| CC(C)NC(=O)CC1OC(=O)c2ccccc21 (stereo not drawn) | 25.9% |
| CSc1ccc(/C=N/n2nnnc2N)cc1 | -4.34% |
| O=C(COC(=O)c1ccc(Cl)c(S(=O)(=O)NCc2ccccc2)c1)NCC1CCCO1 (stereo not drawn) | -53% |
| O=C1Nc2ccccc2/C1=C\C(=O)c1ccccc1 | 11.9% |
| Cc1cnc(CNC(=O)c2ccc(OC3CCN(C(=O)C4CC4)CC3)cc2)cn1 | 10.3% |
| CC(C)CNC(=O)COC(=O)CCC(=O)c1ccc(Cl)cc1 | -3.86% |
| O=C1OC(/C=C/c2ccccc2)=NC/1=C/c1ccco1 | 1.82% |

| Structure (SMILES) | hERG current change (%, negative = inhibition) at 10uM |
| --- | --- |
| C=CCSc1nc(C)c2cc(C)cc(C)c2n1 | 9.52% |
| Cc1c(-c2csc(N)n2)c2ccccc2n1C | 7.81% |
| CC1(C(=O)O)CCC(C(=O)NC2CCCCC2)C1(C)C (stereo not drawn) | 8.09% |
| Cc1nc2ncnn2c(C)c1CCC(=O)NCc1ccco1 | -6.62% |
| CCCCC1CCC(C(=O)N2CCOCC2)CC1 (stereo not drawn) | -3.15% |
| Clc1ccc(-c2nc(-c3ccncc3)no2)c(Cl)c1 | 5.58% |
| CCn1c2c(c(C)cc1=O)C(=O)CC(C)(C)C2 | 19.9% |
| COc1ccc(C(=O)NNC(=O)CSc2nnc(C(C)C)n2C)cc1 | 6.06% |
| CCOc1ccc(N/C=C/C(=O)c2ccccc2)cc1 | 13.9% |
| O=C(Nc1ccc(Cl)c(S(=O)(=O)Nc2ccccc2Cl)c1)c1cccs1 | -11% |
| CC1(C)Cc2c(C#N)c(NCCO)nc(-c3ccco3)c2CO1 | -4.23% |
| Cc1c(C(=O)COC(C)(C)C)[nH]c2ccccc12 | 4.85% |
| Cc1cc2cc(C)c3nnc(SCC(=O)NCc4ccc5c(c4)OCO5)n3c2cc1C | -20.1% |
| COc1cc(C2N(c3ccc(F)cc3)C(=O)C3CCCN32)cc(OC)c1OC (stereo not drawn) | 0.933% |
| COCC1CCCCN1C(=O)c1ccc2oc(CCc3ccccc3)nc2c1 (stereo not drawn) | -5.52% |
| C=CCN=C1NN=C(c2ccc3c(c2)OCCO3)CS1 | 30.4% |
| CC1=C(C(=O)Nc2ccccc2)SCCO1 | 14.7% |
| CCCn1c(SCN2C(=O)c3ccccc3C2=O)nc2cc(Cl)ccc2c1=O | 16.5% |
| O=C(Nc1ccncc1)c1ccc2ncsc2c1 | 6.23% |
| O=C(Cn1nnc2c(cnn2-c2ccc(F)cc2)c1=O)Nc1ccccc1C(F)(F)F | 8.18% |
| CCC(C)C(NS(=O)(=O)c1ccc(C)cc1)C(=O)Oc1ccc2c3c(c(=O)oc2c1)CCC3 (stereo not drawn) | -0.525% |
| Cc1ccc(N2C(S)=C(C#N)C(=O)NC2c2ccco2)cc1 (stereo not drawn) | 16.7% |
| CCC(=O)N(CC(=O)Nc1sc(C)c(C)c1C(N)=O)C1CCCC1 | 0.759% |

| Structure (SMILES) | hERG current change (%, negative = inhibition) at 10uM |
| --- | --- |
| COc1cc(/C=N/NC(=O)CSc2n[nH]c(=O)[nH]c2=O)cc(OC)c1O | 28.8% |
| CCOc1ccc(Cl)cc1/C=C1/C(=O)ON=C1C | -6.65% |
| COc1ccc(/C=C2\SC(=Nc3ccccc3)NC2=O)cc1 | 19.7% |
| COc1ccc(S(=O)(=O)N(C)c2ccc(C(=O)Nc3ccccc3C(=O)N3CCOCC3)cc2)cc1OC | 18% |
| O=C(NCCc1ccccc1)c1nc(CS(=O)(=O)c2ccc(Cl)cc2)no1 | 7.72% |
| COC(=O)CCCN=C1SCCN1Cc1ccccc1 | -2.13% |
| Cc1cc(NS(=O)(=O)c2ccccc2)no1 | 0.414% |
| Clc1ccccc1/C=N/Nc1cc(N2CCOCC2)ncn1 | 23.9% |
| COC(=O)C1=C(c2c(C)noc2C)C[C@@H]2CC[C@H]1N2C(=O)NCCOc1ccccc1 | 5.03% |
| CN(CC(=O)N1CCCCCC1)S(=O)(=O)c1ccc(Br)cc1 | -21.8% |
| CC(C)(C)OC(=O)N[C@@H](C(=O)OC(C)(C)C)c1ccccc1 | 3.46% |
| CCC1Oc2ccccc2N(CC(=O)NCCCN2CCN(Cc3ccccc3)CC2)C1=O (stereo not drawn) | -42% |
| O=C(NCc1csc(-c2cccs2)n1)Nc1ccc(F)cc1F | 7.58% |
| O=C(CCc1ccccc1)NC(=S)Nc1ccc(S(=O)(=O)N2CCOCC2)cc1 | 5.25% |
| CCN(CC)CCn1c2ccccc2c2nc3ccccc3nc21 | -7.76% |
| CC1=CN2C(=N)/C(=C/c3ccc(C)o3)C(=O)N=C2S1 | 5.91% |
| CCOC(=O)c1c(NC(=O)C(F)(OC)C(F)(F)F)sc2c1CCN(C)C2 (stereo not drawn) | -17.9% |
| NC(=O)c1ccc(NC(=O)COC(=O)c2cc(S(=O)(=O)N3CCOCC3)ccc2N2CCCCC2)cc1 | 4.09% |
| O=C(CCC(=O)N1CCN(c2ccc(F)cc2)CC1)c1ccccc1 | -12.7% |
| CNc1nc(C)c([N+](=O)[O-])c(Nc2ccc(OC)cc2)n1 | 15.6% |
| O=C(Nc1ccccc1)c1cccnc1NCCc1ccccc1 | 3.15% |
| O=C(NCc1ccc(N2CCCC2=O)cc1)c1cn(Cc2ccccc2)nn1 | 0.548% |
| CC(C)c1nc2ccc(NC(=O)C34CC5CC(CC(C5)C3)C4)cc2[nH]1 | 4.9% |

| Structure (SMILES) | hERG current change (%, negative = inhibition) at 10uM |
| --- | --- |
| COc1ccc(CNC(C)Cc2cccs2)cc1 (stereo not drawn) | -2.79% |
| COc1ccc(C2=NS(=O)(=O)N(C)C(C(=O)NC3CCCC3)=C2)cc1 | 2.43% |
| CN1CCN(c2ccc(N)c(N3CCN(C)CC3)c2)CC1 | 13.4% |
| COC(=O)C(C(=O)OC)c1ccc(-n2cccc2)cc1 | 7.59% |
| CC(=O)Nc1ccc(S(=O)(=O)NC2(C(F)(F)F)NC(=O)N(C3CCCC3)C2=O)cc1 (stereo not drawn) | 9.98% |
| CC(NS(=O)(=O)c1ccc(Br)cc1)C(c1cccs1)N1CCN(C)CC1 (stereo not drawn) | -53.2% |
| Cc1ccc(NCc2nc3ccccc3n2CCOc2ccccc2)cc1 | 3.82% |
| N/C(=N\OC(=O)CCc1ccccc1)c1ccc(Cl)cc1 | 10.3% |
| COc1ccc(-c2ncccc2OC(=O)C23CC4CC(CC(C4)C2)C3)cc1.Cl.O | -2.35% |
| Cc1cc(C)n(-c2ccc(C(=O)Nc3cccc([N+](=O)[O-])c3)cc2)n1 | 40.2% |
| CS(=O)(=O)Nc1ccc(C(=O)N2CC(=O)Nc3ccccc32)cc1 | 9.74% |
| COCCNC(=O)CSc1ncnc2sc(-c3ccccc3)cc12 | 2.83% |
| c1ccc2cc(Cn3ccnc3)ccc2c1 | 7.55% |
| Cc1ccc(NC(=O)CS(=O)CC(=O)Nc2cnc3ccccc3c2)cc1Cl (stereo not drawn) | 12.9% |
| CN(C)S(=O)(=O)c1ccc2nc(NC(=O)c3cccnc3)sc2c1 | 12.1% |
| Cc1cccc(OCCn2c(CCCO)nc3ccccc32)c1 | -23.2% |
| C[n+]1ccc(C(=O)N/N=C/c2ccco2)cc1.[I-] | 26.7% |
| NC(=O)c1sc2nc(N3CCOCC3)c3c(c2c1N)CCCC3 | 8.71% |
| O=C(NCc1ccco1)C1CCN(S(=O)(=O)c2cccc([N+](=O)[O-])c2)CC1 | -11.4% |
| CC(C)c1ccc(OCCCCCN2CCOCC2)cc1.O=C(O)C(=O)O | -24.9% |
| Cc1[nH]n(-c2ccccc2)c(=O)c1C1(C(F)(F)F)C(=O)N(c2ccccc2)C2=C1C(=O)CC(C)(C)C2 (stereo not drawn) | 28.4% |
